Among the data in PubChem BioAssay AID1346428 (National Center for Advancing Translational Sciences (NCATS), 2018) are activation values, retold here.

Several values for one entry are separate records, joined by “and”; a condition that tells them apart may be missing. Equal entries are not always repeated. Out of some 48,000 compounds screened, about 1,200 (2.5%) were called active. About 2% were inconclusive and are not listed.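 Rule for the calls: active = activation of at least 60% and not above a set upper limit (about 1 call in 100 departs from these limits); inconclusive = activation of 40% to 60%, or above that upper limit; inactive = activation under 40%.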 Some of the results follow.

The target in this assay is Probable G-protein coupled receptor 32 (Homo sapiens) (UniProt O75388). The assay is described as follows: qHTS for Agonists of Human Resolvin D1 Receptor DRV1. Note: 0% is about no effect. The settings on record: CHO-K1 GPR32 beta-arrestin PathHunter luminescence, 90 min; at 76.9 µM; active compounds read high; zero percent set by DMSO-only wells. Summed up: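 CHO-K1 cells stably expressing ProLink-tagged GPR32 and Enzyme Activator-tagged beta-arrestin were seeded at 2,500 cells/well overnight, exposed to compounds for 90 min at 37 °C, then read by beta-Gal complementation chemiluminescence after 1 h detection reagent.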
Chain of UniProt O75388 (O75388 whole entry, looked up): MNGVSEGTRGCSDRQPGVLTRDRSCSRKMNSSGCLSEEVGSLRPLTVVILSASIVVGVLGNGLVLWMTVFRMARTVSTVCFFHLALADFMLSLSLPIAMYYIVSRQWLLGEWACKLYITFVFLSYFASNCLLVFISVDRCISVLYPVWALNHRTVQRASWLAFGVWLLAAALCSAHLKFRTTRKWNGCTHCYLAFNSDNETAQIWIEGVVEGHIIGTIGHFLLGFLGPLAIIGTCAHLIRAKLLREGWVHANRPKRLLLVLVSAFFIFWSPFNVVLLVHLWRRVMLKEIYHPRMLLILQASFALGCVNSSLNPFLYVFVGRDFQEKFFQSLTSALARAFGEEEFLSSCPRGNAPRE
Regarding `O=C(CCc1nnc2n(Cc3ccccc3Cl)c(=O)c3ccccc3n12)Nc1ccccc1`, the activation was inactive: 5.98%.

`COc1ccc(NC(=O)C(=O)NCCc2csc3nc(-c4ccccc4C)nn23)cc1`: the activation is inactive: -4.95%.

On to `O=C(C1CC1)N1CCc2cc(Br)cc(S(=O)(=O)Nc3ccc(C(F)(F)F)cc3)c21`, for which the activation is active: 65.4%.

With `COCCNC(=O)c1ccc(NC(=O)N2CCCCc3ccccc32)cc1`, the activation is inactive: -17.2%.

With `CCOc1ccc(CNC(=O)CN2C(=O)CSc3c2c(C)nn3-c2ccccc2)cc1`, the activation was inactive: -22.2%.

For the compound `O=C(Nc1c(O)c2ccccc2oc1=O)c1ccccc1Cl`, the activation is inactive: 1.82%.

For the compound `Cc1ccc(CSc2nc3cccnc3n2Cc2nc(-c3ccccc3F)oc2C)cc1`, the activation is inactive: -9.37%.

As to `COc1ccc(S(=O)(=O)N(CCc2ccccc2)CC(=O)NCc2ccc(C)cc2)cc1`, the activation was inactive: -4.55%.

For the compound `CCCC(=O)Nc1nnc(S(=O)(=O)N(C)c2ccccc2)s1`, the activation is inactive: -11.6%.

On to `COC(=O)c1ccccc1NC(=O)CSc1c2c(nc3ccc(Cl)cc13)CCCC2`, for which the activation is inactive: -13%.

Consider `COc1ccccc1CCNC(=O)C1CCN(c2nc3ccccc3nc2C(F)(F)F)CC1`, for which the activation is inactive: -24.4%.

`CCCN(CCC)C(=O)C(CCC(=O)O)NC(=O)c1ccccc1` (stereo not given): the activation is inactive: -4.12% and inactive: -10%.

As to `O=C(NCC(c1cccnc1)N1CCN(Cc2ccccc2)CC1)C(=O)Nc1ccc(F)cc1` (stereo not given), the activation is inactive: -11.3%.

Turning to `Cc1cc(C)c(S(=O)(=O)Nc2ccc(-c3ccc(N4CCCCC4)nn3)cc2)cc1C`, the activation is inactive: 10.4%.

For `COc1cccc(CNC(=O)C2CCCN(c3nnc(-n4c(C)ccc4C)s3)C2)c1` (stereo not given), the activation was inactive: 25.2%.

With `CCOC(=O)N1CCN(CCC(=O)Nc2cc(C)ccc2C)CC1`, the activation is inactive: -2.14%.

Take `CC(C)c1ccc(NC(=O)CN(C)S(=O)(=O)c2ccc3c(c2)n(C)c(=O)c(=O)n3C)cc1`: the activation was inactive: -9.83%.

Regarding `CCn1cnc2cc(NCc3ccc(N(C)C)cc3)ccc21`, the activation is inactive: -19.7%.

Turning to `CCCCCCCCCCCCOS(=O)(=O)O`, the activation is inactive: 10.1%.

Consider `CCC1CCCCN1C(=O)CSc1nc(-c2ccc(OC)cc2)cc(C(F)(F)F)n1` (stereo not given), for which the activation is inactive: 3.13%.

`CCc1ccc(CNC(=O)c2cnc3sc(N4CCCCCC4)nn3c2=O)cc1`: the activation is inactive: 3.43%.

For `CCOc1ccc(C(=O)Nc2ccc3nc(SCC(=O)N4CCCC4)sc3c2)cc1`, the activation is inactive: -5.57%.

Turning to `CCn1cc2nc(SCC(=O)Nc3cccc(Cl)c3C)n(Cc3ccc(Cl)cc3)c(=O)c2n1`, the activation is inactive: -18%.

As for `O=C(NCCc1ccc(Cl)cc1)c1ccc2c(c1)N(Cc1ccccc1)C(=O)CS2`, the activation was inactive: -11.6%.

As to `Cc1ccc(NC(=O)CN2C(=O)c3ccccc3Sc3ncccc32)c(C)c1`, the activation was inactive: 7.84%.

Consider `Cc1ccc(NC(=O)c2sc3nc[nH]c(=O)c3c2C)cc1C`, for which the activation was inactive: 7.48%.

Turning to `COc1ccccc1NC(=O)C1=C(C)Nc2nc(SCc3ccccc3)nn2C1c1cccs1` (stereo not given), the activation is inactive: -38.8%.

Consider `CCn1c(SCC(=O)Nc2cc(Cl)ccc2OC)nc2c([nH]c3ccccc32)c1=O`, for which the activation is inactive: 11.7%.

`CC(=O)c1ccc(NC(=O)c2nn(C)c3c2COc2ccccc2-3)cc1`: the activation was inactive: -5.39%.

On to `CCc1cc2c(-c3ccccc3)cc(=O)oc2c2c1OCN(Cc1ccc(C)cc1)C2`, for which the activation is inactive: -37.6%.

As to `CCOC(=O)c1c(NC(=O)c2cc(-c3ccc(Br)cc3)on2)sc(C)c1C`, the activation is inactive: 5.98%.

Consider `CC(Oc1ccccc1F)C(=O)N1CCC(c2nc3ccccc3o2)CC1` (stereo not given), for which the activation was inactive: 10.8%.

Turning to `CCOc1ccccc1NC(=O)N1CCC(N2CCN(Cc3ccccc3)C(=O)C2=O)CC1`, the activation was inactive: -16.1%.

Consider `O=c1c2ccccc2nc(-c2ccc(Cl)cc2)n1CCCCOc1ccc(F)cc1`, for which the activation is inactive: -16.2%.

As for `COC(=O)c1ccc(NC(=O)CCOc2ccccc2)cc1`, the activation is inactive: -5.4%.

For the compound `Cc1ccc(Cn2c(Cc3ccccc3)nc3ccccc32)cc1`, the activation was inactive: -50.1%.

On to `CCOC(=O)c1ccccc1NC(=O)CCc1c(C)nc2c(c1C)c(=O)n(C)c(=O)n2C`, for which the activation is inactive: -4.1%.

Regarding `CCOc1ccc(CN2C(=O)c3ccccc3Sc3ccc(C(=O)NC4CCC(C)CC4)cc32)cc1` (stereo not given), the activation was inactive: 10%.

In the case of `CC(COc1ccccc1)NN` (stereo not given), the activation was inactive: -35.5%.

With `COC(=O)c1ccc(NC(=O)c2cc3cc4ccc(OC)c(Cl)c4nc3s2)cc1`, the activation was inactive: -15.8%.

Regarding `COc1ccc(CNC(=O)CCS(=O)(=O)c2cc3c4c(c2)CCN4C(=O)CC3)cc1`, the activation is inactive: 7.23%.

As for `COc1ccc(-c2noc(CSc3nnc(-c4ccncc4)n3-c3ccc(OC)cc3)n2)cc1`, the activation is inactive: -20.7%.

Turning to `Cc1cccc(NC(=O)Cn2c(=O)oc3cc(S(=O)(=O)N4CCCCCC4)ccc32)c1`, the activation is inactive: 37.9%.

With `Cn1cc(C(=O)N2CCN(c3ccccc3)CC2)c(=O)c2cc(S(=O)(=O)N3CCCC3)ccc21`, the activation was inactive: -10.4%.

As for `O=C(NC1CC(=O)N(c2ccc(F)cc2)C1)C(c1ccccc1)c1ccccc1` (stereo not given), the activation is inactive: -16.1%.

With `CCOC(=O)c1cc(-c2ccccc2)n(-c2cccc(C(=O)Nc3cccc(C)c3)c2)c1C`, the activation is inactive: -18.9%.

As for `Cc1ccc2nc(COc3cccc(NC(=O)COc4ccccc4F)c3)cc(=O)n2c1`, the activation is inactive: -0.816%.

In the case of `O=C(C1CC1)N1CCc2cc(Br)cc(S(=O)(=O)N3CCN(c4cccc(Cl)c4)CC3)c21`, the activation is inactive: -5.06%.

Turning to `Cc1ccc(CSc2ccc3nnc(CCNS(=O)(=O)c4ccc(C)cc4)n3n2)cc1`, the activation is inactive: -22.7%.

For the compound `O=C(Nc1ccc2nc(SCC(=O)N3CCCC3)sc2c1)c1ccc(Br)cc1`, the activation is inactive: -2.74%.

For the compound `Cc1cccc(OCC(=O)OCc2cc(=O)n3nc(-c4cccs4)sc3n2)c1`, the activation was inactive: -5.06%.

`CCC(C)NC(=O)Cn1c(=O)n(-c2ccc(Cl)c(Cl)c2)c(=O)c2c(C)c(C(=O)N(CC)CC)sc21` (stereo not given): the activation was inactive: -17.7%.

In the case of `Cc1ccc(-n2ncc(C(=O)N3CCN(c4ccccn4)CC3)c2C2CCN(C(=O)OC(C)(C)C)CC2)cc1`, the activation was inactive: -8.92%.

On to `CCc1nn(Cc2cccc(F)c2)c(=O)c2cc3cc(C)ccc3n12`, for which the activation is inactive: 25.9%.

For the compound `Cc1ccc(NC(=O)c2cc(S(=O)(=O)N3CCCc4ccccc43)ccc2F)cc1F`, the activation is inactive: -13.9%.

For `COc1ccc(Nc2c(-c3ccc(C)o3)nc3ccc(Cl)cn23)cc1`, the activation was inactive: -18.7%.

Regarding `COC(=O)c1ccccc1NC(=O)Cn1c(=O)nc(-c2ccccc2)c2cc(Cl)ccc21`, the activation is inactive: -12.3%.

Consider `Cc1cccc(C)c1Nc1c(-c2cccs2)nc2ncccn12`, for which the activation is inactive: 48.1%.

Turning to `CCCCCCCCCCC[C@@H](C[C@@H]1OC(=O)[C@H]1CCCCCC)OC(=O)[C@H](CC(C)C)NC=O`, the activation is inactive: 6.37%.

As for `CCCCC(=O)Nc1cc2nn(-c3ccc(OCC)cc3)nc2cc1C`, the activation is inactive: 26.9%.

Consider `Cc1cccc(Cn2cc(S(=O)(=O)c3ccc(Cl)cc3)c(=O)c3cc4c(cc32)OCO4)c1`, for which the activation was inactive: -9.24%.

Consider `Cc1ccc(OCC(=O)Nc2cc(-c3nc4ccccc4[nH]3)ccc2C)c(C)c1`, for which the activation is inactive: -5.98%.

As for `CS(=O)(=O)N1CCC(n2c(C(F)(F)F)nc3cccnc32)CC1`, the activation was inactive: 5.81%.

Take `Cc1cccc(OCCSc2nc3ccc(NC(=O)c4cccs4)cc3s2)c1`: the activation was inactive: 16.2%.

On to `Cn1c(=O)c2c(SCC(=O)NCC3CCCO3)nc(-c3cccc(F)c3)nc2n(C)c1=O` (stereo not given), for which the activation was inactive: -5.92%.

In the case of `CCn1c(=O)sc2cc(NC(=O)c3cccc(OC)c3)ccc21`, the activation was inactive: 35.4%.

Regarding `CC(C)c1nn2c(=O)cc(COC(=O)CNC(=O)c3ccccc3Cl)nc2s1`, the activation is inactive: 1.75%.

Consider `O=C(Cn1ccn(-c2ccc(F)c(F)c2)c(=O)c1=O)c1ccc(F)cc1`, for which the activation is inactive: -5.72%.

As for `CCN1CCN(c2nnc(-n3cccc3C(=O)Nc3cccc(OC)c3)s2)CC1`, the activation was inactive: -3.54%.

Regarding `CCOc1ccc(Cn2c(CNS(=O)(=O)c3c(C)cc(C)cc3C)nc3cccnc32)cc1`, the activation was inactive: -20.1%.

For `CCC(C)n1c(SCc2ccc(C(C)(C)C)cc2)nc2ccsc2c1=O` (stereo not given), the activation was inactive: -12.5%.

`Cc1nnc(NC(=O)CSc2nccn2-c2ccc(Cl)cc2)s1`: the activation is inactive: -14.9%.

As for `Oc1cn2c(n1)Nc1ccc(Cl)c(Cl)c1C2`, the activation was inactive: -10.5%.

With `O=S(=O)(c1ccccc1)c1nc(-c2cccs2)oc1SCc1ccccc1Cl`, the activation is inactive: -22%.

Regarding `Cc1ccc(OCc2nc(-c3ccc(C(=O)N4CCN(c5cc(Cl)ccc5C)CC4)cc3)oc2C)cc1`, the activation was inactive: 3.58%.

Regarding `COC(=O)c1ccc(C(=O)OC)c(NC(=O)N2CC3CCCN3c3ccccc32)c1` (stereo not given), the activation was inactive: -22.2%.

Take `CCOC(=O)CC(=O)CSc1nc2ccccc2c(=O)n1-c1ccc(C(=O)NCCOC)cc1`: the activation is inactive: -27.3%.

As to `Cc1ccc(Cl)cc1N1CCN(C(=O)c2cc3c(=O)n(C)c4ccccc4c3s2)CC1`, the activation is inactive: 5.73%.

For the compound `O=C(CC1NCCNC1=O)Nc1ccccc1F` (stereo not given), the activation was inactive: 0.823%.

Take `CCOC(=O)c1c(-c2ccc(C)cc2)csc1NC(=O)c1cc(=O)c2cc(Cl)ccc2o1`: the activation was inactive: -3.4%.

As for `CCOc1ccccc1NC(=O)CSc1nc2c([nH]c3ccccc32)c(=O)n1-c1ccccc1`, the activation is inactive: -39.5%.

Regarding `Cc1ccc(NC(=O)NCCOCCn2c(=O)oc3ccccc32)cc1F`, the activation was inactive: 17.7%.

On to `O=C1O[C@H](CO)[C@@H](O)[C@H](O)[C@H]1O`, for which the activation was inactive: 2.21%.

Regarding `O=C(OCC1CCCO1)c1ccc2c(c1)N(Cc1cccc(Cl)c1)C(=O)c1ccccc1S2(=O)=O` (stereo not given), the activation is inactive: -27.1%.

For the compound `Cc1cccc(NC(=O)c2c(NC(=O)c3ccccc3)sc3c2CCCC3)c1`, the activation is inactive: -3.09%.
